From US9994626B2, “Stable polypeptides binding to human complement C5” (Swedish Orphan Biovitrum AB (publ), priority 2013, dated 2018)
Numbering of substitutions follows the chain as printed. In names and notes the source's numbering stands.

B1: PSI0378: C5 binding compound derived from PSI0242 with substitutions N52S, D53E and D60E (protein)
chain: AEAKYAKEVLEAWDEIDRLPNLTIEQWLAFINKLDDDPSQSSELLSEAKKLSESQAPKVEGSLAEAKEAANAELDSYGVSDFYKRLIDKAKTVEGVEALKDAILAALP
modifications: Modified bacterial sequence
B2: PSI0410: C5 binding compound with linking moiety KVEGS (X60=E) while X52X53 is ND (protein)
chain: B1 chain with S52N, E53D
modifications: Modified bacterial sequence

Key:
[1] = target: T1, recombinant human albumin (Homo sapiens, UniProt P02768); experiment: Human albumin ELISA; type: binding; settings: quantified against PSI0242 standard
T1 construct: purchased Novozymes
From the text: For assessment of C5 binding compounds binding affinity for albumin, a human albumin ELISA utilizing recombinant human albumin (coating) and commercially available antibodies (primary and detecting) purchased from Novozymes, Affibody AB and DakoCytomation, respectively, was used. A method standard prepared from PSI0242 (SEQ ID NO:249), comprising a C5 binding polypeptide and an albumin binding domain of streptococcal protein G, was used for quantification of samples. A 96-well microplate was coated with recombinant human albumin. The plate was then washed with phosphate buffered saline containing 0.05 Tween 20 (PBST) and blocked for 1-2 hours with 1% casein in PBS. After a plate wash, the standard, method controls, control sample and test samples are added to the plate. After incubation for 2 hours, unbound material was removed by a wash. A goat Anti-AFFIBODY IgG (Affibody AB, cat no. 20.1000.01.0005) was added to the wells and the plate was incubated for 1.5 hours to allow binding to the bound C5 binding compounds. After a wash, rabbit anti-goat IgG HRP was allowed to bind to the goat antibodies for 1 h. After a final wash, the amount of bound HRP was detected by addition of TMB substrate, which was converted to a blue product by the enzyme. Addition of 1 M hydrochloric acid after 30 minutes stopped the reaction and the color of the well contents changed from blue to yellow. The absorbance at 450 nm was measured photometrically, using the absorbance at 650 nm as a reference wavelength. The color intensity was proportional to the amount of PSI0242 (SEQ ID NO:249) and the sample concentrations were determined from the standard curve.

[2] = 3 month stability test at 37° C., RPC; type: physicochemical; settings: for 3 months, 37° C. Main peak (% of total protein): RPC
From the text: The 2 weeks data from example 2 is included in Table VIII below to make the interpretation easier.

[3] = Accelerated stability study, 2 weeks at 37° C., SDS-PAGE and Reversed Phase HPLC (RPC); settings: for stability when compared with PSI0242: 2 weeks at 37° C., conclusion in words; for Main peak (% of total protein): RPC after 2 weeks at 37° C.; for Main peak (% of total protein) / RPC post peaks / RPC prepeaks / SDS-PAGE bands: 25 mM NaP/125 mM NaCl pH 7.0; for 2 weeks, 37° C. Main peak (% of total protein): RPC, data from example 2; for RPC post peaks / RPC prepeaks / SDS-PAGE bands: after 2 weeks at 37° C.
human C5 = target: T2, human C5 (Homo sapiens, UniProt P01031); experiment: Inhibition of hemolysis (classical complement pathway), antibody sensitized sheep erythrocytes; type: cell-based; settings: compared to reference compound PSI0242
T2 construct: the β-chain corresponds to amino acid residues 19-673; the α-chain corresponds to amino acid residues 678-1676; purchased

Row | Molecule | % of total protein content [1] | 3 months, 37° C. Main peak (% of total protein) [2] | proportion of protein in the original form after 3 months at 37° C. versus PSI0242 after 2 weeks ([2]; result in words) | stability when compared with PSI0242 [3] | Main peak (% of total protein) [3] | 2 weeks, 37° C. Main peak (% of total protein) [3] | RPC post peaks [3] | RPC prepeaks [3] | SDS-PAGE bands [3] | inhibition of hemolysis, result in words (human C5)
1 | B1 | 85 % of total protein content | 59 % of total protein | higher proportion of protein in the original form | increased stability | 89 % of total protein | 89 % of total protein | 0 | 0 | 1 | comparable to the reference compound
2 | B2 | 150 % of total protein content | 16 % of total protein |  | increased stability | 72 % of total protein | 72 % of total protein | 1 | 1 | 1 | comparable to the reference compound
